# Data: PubChem BioAssay AID1508642 (National Center for Advancing Translational Sciences (NCATS), 2021)
# Screen size: about 43,000 compounds; about 200 (0.47%) were called active. Roughly 12% stayed inconclusive and do not appear here. Calls come from the whole dose curve; as a rule, active = well fitted cell-killing curve with a large enough effect; inconclusive = small, poorly fitted or top-dose-only effect, or effect the other way; inactive = flat fitted curve, though single readings scatter. Some of the results follow.
# Test: Cell viability qHTS assay in S16 Pmp22-F2sN cells; note: nearly all actives have a fitted effect of over 65% in size
# Conditions: S16 Pmp22-F2sN Schwann cells (luciferase reporters placed in the Pmp22 gene) viability, CellTiter-Glo, 24 h; series mostly up to 57.5 µM; activity change, negative = cytotoxicity: at the top concentration
# Outline: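 Seed 500-1,000 S16 Pmp22-F2sN cells per well in phenol-red-free DMEM with 10% heat-inactivated FBS; pin-add 23 nL compound; incubate 24 h at 37C; add CellTiter-Glo, wait 15 min protected from light; read luminescence.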
# % is set by controls: 0 for no effect and ±100 for the full control effect.
row,SMILES,"activity change, negative = cytotoxicity"
1,COc1ccc(CNC(=O)CN2CCSc3ccccc32)c(OC)c1,inactive: 15.8%
2,CCN(c1ccccc1)S(=O)(=O)c1cc(C(=O)Nc2ccc(Br)cc2)ccc1F,inactive: -17%
3,CCOC(=O)c1c(Nc2ccccc2)nnc(-c2ccccc2)c1-c1ccccc1,inactive: -13.2%
4,O=C(Cn1c(=O)oc2ccccc21)NCc1ccc(Cl)cc1,inactive: -6.54%
5,COc1ccc2oc(-c3ccc(C)c(NC(=O)c4ccc(N5CCCCC5)c([N+](=O)[O-])c4)c3)nc2c1,inactive: 9.49%
6,CCc1ccc(NC(=O)CSc2nc3ncccc3[nH]2)cc1,inactive: 11.1%
7,CCOc1ccc(/C=C/C(=O)Nc2sc3c(c2C(=O)OC)CCC3)cc1,inactive: -26.4%
8,CCCOc1ccccc1C1Oc2nc(SC)nnc2-c2ccccc2N1C(C)=O (stereo not given),inactive: -0.892%
9,COCCNC(=O)Cn1ncc2c(C)n(Cc3ccc(C)cc3)c(C)c2c1=O,inactive: 7.15%
10,CCOC(=O)c1ccc(-c2ccc(/C=C(\C#N)C(=O)Nc3ccc(C)cc3OC)o2)cc1,inactive: -4.92%
11,CCCNC(=O)CN1CCN(c2ncc(NC(=O)c3ccc(Cl)cc3)cc2C(=O)O)CC1,inactive: -2.53%
12,CSc1ccc(C2c3c(oc4ccccc4c3=O)C(=O)N2CCCN2CCOCC2)cc1 (stereo not given),inactive: 10.5%
13,CC(C)(C)C(=O)OC1=CN(Cc2ccccc2)S(=O)(=O)c2ccccc21,inactive: 3.16%
14,Cc1ccc(C)c(CNC(=O)c2cnc3sc(N4CCCC4)nn3c2=O)c1,inactive: 1.63%
15,CCOc1ccc(C(=O)c2cn(Cc3ccc(F)cc3)c3ccc(F)cc3c2=O)cc1,inactive: 0.252%
16,Cc1cccc(-n2ncc3c(N4CCCCCC4)ncnc32)c1,inactive: -0.678%
17,Cc1ccc(CN(Cc2ccco2)C(=O)c2oc3ccc(C)cc3c2C)cc1,inactive: -3.16%
18,Cc1ccc(NC(=O)Cn2nnc(C(=O)NCCc3ccccc3)c2N)cc1C,inactive: -4.84%
19,Cc1oc2ncn(C)c(=O)c2c1C(=O)NCCCN(Cc1ccccc1)C(C)C,inactive: 10.6%
20,CCn1c(=O)c2sccc2n2c(CCC(=O)Nc3ccc(OC)c(Cl)c3)nnc12,inactive: 6.22%
21,Cc1ccc(C(=O)Nc2nc(-c3ccccc3)ns2)cc1,inactive: 1.23%
22,CCc1ccc(C2NC(=O)c3[nH]nc(-c4cccc(OC)c4)c32)cc1 (stereo not given),inactive: -17.6%
23,CC(C)Oc1ccc(CNC(=O)C2CCN(c3nc4ccccc4n(C)c3=O)CC2)cc1,inactive: 8.64%
24,Cc1ccsc1CN(C(=O)c1oc2ccccc2c1C)C1CCS(=O)(=O)C1 (stereo not given),inactive: -1.07%

row,SMILES,"activity change, negative = cytotoxicity"
1,Cc1ccc(C)c(Cn2c3ccccc3c3cnn(CC(=O)NC(C)c4ccccc4)c(=O)c32)c1 (stereo not given),inactive: 24.4%
2,CS(=O)(=O)N1CCc2cc(C(=O)Nc3cccc(F)c3)ccc21,inactive: -3.5%
3,Cc1ccc(O)c(NC(=O)CCS(=O)(=O)c2nc(-c3ccc4c(c3)OCO4)cc(C(F)(F)F)n2)c1,inactive: 0.975%
4,COc1ccc(S(=O)(=O)N(CC(=O)Nc2cccnc2)c2ccc(C)cc2)cc1OC,inactive: 11.8%
5,COc1cc2c(=O)n(CCC(=O)NCC3CCCO3)c(=O)n(CC(=O)Nc3ccc(F)cc3)c2cc1OC (stereo not given),inactive: -11.5%
6,CCOc1ccccc1NC(=O)COc1ccc(S(=O)(=O)NC2CCCCC2)cc1,inactive: 9.88%
7,O=C(Nc1ccc(F)c(F)c1)C1CCCN1S(=O)(=O)c1cccc2nsnc12 (stereo not given),inactive: 3.56%
8,Cc1ccc(-n2nnc(-c3nsc(NC(=O)c4ccc(C)c(C)c4)n3)c2C)cc1,inactive: -30%
9,Cc1ccc2c(c1)c1c(c(=O)n(-c3ccccc3C)c(=O)n1CC(=O)NCC1CCCO1)n2C (stereo not given),inactive: 13.9%
10,Cc1cc(=O)n2nc(N3CCC(C(=O)Nc4ccc(Br)cc4F)CC3)sc2n1,inactive: 17.7%
11,COc1cccc(NC(=O)c2ccc(-c3nc(COc4ccc(C)cc4)c(C)o3)cc2)c1,inactive: -9.3%
12,Nc1c(C(=O)Nc2ccc(Br)cc2)sc2nc(-c3ccncc3)ccc12,inactive: 6.99%
13,O=C(CNC(=O)c1ccc(Cl)cc1)OCc1cc(=O)n2nc(C3CCCCC3)sc2n1,inactive: -39.7%
14,Cc1ccc(C)c(NC(=O)CCCN2C(=O)C(c3ccccc3)Oc3cccnc32)c1 (stereo not given),inactive: 18.3%
15,CCOC(=O)c1cc(-c2ccc(F)cc2)n(CCC(=O)NC2CCCCC2)c1C,inactive: -21.7%
16,Cc1cc(C)cc(Nc2nc3c(S(=O)(=O)c4cccc(Cl)c4)nnn3c3ccsc23)c1,inactive: 4.68%
17,CCOC(=O)c1cccc(NC(=O)c2cc3cc4ccc(C)cc4nc3s2)c1,inactive: 12.9%
18,CSc1ccc(CCNC(=O)c2cc3c(-c4ccccc4F)nn(C)c3s2)cc1,inactive: 11.2%
19,Cc1cccc(NC(=O)Cn2c(=O)n(CCC(=O)N3CCc4ccccc4C3)c(=O)c3ccccc32)c1,inactive: 19.2%
20,CCOc1ccc(NC(=O)NCCN2CCN(c3ccccc3F)CC2)cc1,inactive: 16.9%
21,CC(=O)Nc1ccc(C(=O)CSc2nnc3ccc4ccccc4n23)cc1,inactive: 5.85%
22,CCOC(=O)c1cc2c(=O)n3ccccc3nc2n(C)c1=NC(=O)c1cc2ccccc2o1,inactive: -18.6%
23,CCc1ccc(OCCSc2nc(-c3cccc(C)c3)nc3cc(=O)[nH]n23)cc1,inactive: 16.5%
24,COc1ccc(NC(=O)CCSc2nc(-c3ccco3)cc(C(F)(F)F)n2)cc1OC,inactive: 2.74%

row,SMILES,"activity change, negative = cytotoxicity"
1,O=C(CN1C(=O)C2(SCC(=O)N2c2ccc(F)cc2)c2ccccc21)NCCc1ccccc1 (stereo not given),inactive: -11.4%
2,COc1ccc(NCc2nnc3n2CCCCC3)c(OC)c1,inactive: 10.3%
3,CCOc1ccc(C(=O)c2cn(CC(=O)Nc3cc(OC)ccc3OC)c3cc(OC)c(OC)cc3c2=O)cc1,inactive: 5.22%
4,COc1ccc(-c2ccc(=O)n(CC(=O)NCCc3ccccc3)n2)cc1,inactive: -0.971%
5,Cc1cc(C)c(NC(=O)C(C)n2nnc3sc(-c4ccccc4)cc3c2=O)c(C)c1 (stereo not given),inactive: 8.48%
6,CCOC(=O)C1CCN(C(c2ccc(F)cc2)c2sc3nc(-c4ccco4)nn3c2O)CC1 (stereo not given),inactive: 13.1%
7,CCOc1cc(CNCCSc2nnnn2-c2ccccc2)ccc1OC,inactive: -26.9%
8,Cc1cc(C)cc(Nc2cc(C(=O)NCc3ccccc3)c3ccccc3n2)c1,inactive: 1.08%
9,O=[N+]([O-])c1cc(-c2nc(-c3ccncc3)no2)ccc1NCc1ccccc1,inactive: 0.0751%
10,COc1cn(CC(=O)Nc2cc(C)ccc2C)c(CN2CCCCC2)cc1=O,inactive: 1.15%
11,CNC(=O)C1CCC(Cn2c(=O)c3sccc3n(CC(=O)Nc3cc(F)ccc3F)c2=O)CC1 (stereo not given),inactive: -16%
12,CC(=O)Nc1cccc(NC(=O)CSc2cn(CC(=O)N3CCCCCC3)c3ccccc23)c1,inactive: -1.21%
13,CCOC(=O)c1cccc(NC(=O)N2CCC(CN3CCCCCC3)CC2)c1,inactive: 15.8%
14,COc1ccccc1NC(=O)C1=C(C)Nc2nc(SCc3ccccc3Cl)nn2C1c1ccncc1 (stereo not given),inactive: -3.35%
15,CCN(CC)S(=O)(=O)c1ccc(C(=O)NCCSc2c(-c3ccc(OC)cc3)[nH]c3ccccc23)cc1,inactive: -14.9%
16,COc1ccc(OC)c(NC(=O)CN2CCCN(Cc3cc(C)ccc3C)S2(=O)=O)c1,inactive: 5.21%
17,Cc1cccc2c1-c1sc(C(=O)N3CCN(c4cccc(Cl)c4)CC3)cc1CO2,inactive: 6.36%
18,COc1ccc(-c2cc(C(F)(F)F)nc(SCC(=O)NCc3ccc(Cl)cc3)n2)cc1,inactive: 2.06%
19,CCOc1ccc(CCNC(=O)c2cnc3sc(N4CCCCCC4)nn3c2=O)cc1,inactive: -4.07%
20,Cc1ccc(C)c(C(=O)COC(=O)CCCC(=O)Nc2cc(C(F)(F)F)ccc2Cl)c1,inactive: 1.62%
21,CC1=C(C(=O)Nc2ccc(F)cc2F)C2(CCCCCC2)OC1=O,inactive: 0.984%
22,O=C(CN1C(=O)C2(SCC(=O)N2c2ccc(F)c(F)c2)c2ccccc21)Nc1ccccc1F (stereo not given),inactive: -0.486%
23,O=C(CSc1nccn1Cc1ccc(Cl)cc1)NCc1ccccc1,inactive: -2.9%
24,COc1ccccc1CNC(=O)C(CC(C)C)N1Cc2ccccc2C1=O (stereo not given),inactive: -15.5%

row,SMILES,"activity change, negative = cytotoxicity"
1,CCOc1ccc(NC(=O)CN2C(C(=O)OC)=C(c3ccccc3)c3cc(Cl)ccc3S2(=O)=O)cc1,inactive: 17.1%
2,Cc1cc(=O)[nH]c2nnc(SCc3ccc(Cl)cc3)n12,inactive: 2.2%
3,COC(=O)C1=C(c2ccccc2)c2ccccc2S(=O)(=O)N1CC(=O)Nc1ccc(OC)cc1OC,inactive: -1.58%
4,O=C(NCc1ccccc1)C1CCN(S(=O)(=O)c2ccc3[nH]c(=O)ccc3c2)CC1,inactive: 16.3%
5,Cc1cccc(N(C)S(=O)(=O)c2c(C(=O)N3CCCCCC3)c(C)n(C)c2C)c1,inactive: 8%
6,Cc1ccc(CNC(=O)CN2CCN(Cc3ccc(F)cc3)C2=O)cc1,inactive: -1.89%
7,Cc1ccc(Cl)cc1-n1ncc2c(N3CCC(C)CC3)ncnc21,inactive: -23.7%
8,COc1ccccc1NC(=O)C1CCN(S(=O)(=O)c2cn(C)cn2)CC1,inactive: -6.4%
9,COc1ccccc1-c1cc(NC(=O)COc2ccc(C)c(C)c2)n(-c2ccccc2)n1,inactive: -13.2%
10,CC(C)c1ccc(NC(=O)CCNS(=O)(=O)c2ccc3c(c2)CCCC(=O)N3)cc1,inactive: -3.13%
11,CCOC(=O)CC(NC(=O)CCc1c(C)nc2ncnn2c1C)c1ccc(OC(C)C)cc1 (stereo not given),inactive: 9.94%
12,CCOc1ccc(NC(=O)Cn2c(=O)cc(C)c3c(C)nn(-c4cccc(Cl)c4C)c32)cc1,inactive: 21.1%
13,CCOc1ccc(C(=O)N2CCN(CCc3ccccn3)CC2)cc1,inactive: 5.7%
14,Cn1c(=O)[nH]c(=O)c2c1nc1n2CCN1c1ccccc1,inactive: 1.69%
15,CCOc1ccc(S(=O)(=O)c2cn(Cc3ccc(OC)cc3)c3ccc(F)cc3c2=O)cc1,inactive: -12.7%
16,Cc1ccc(-c2nc(S(=O)(=O)c3ccc(C)cc3)c(N3CCCCCC3)o2)cc1,inactive: -18.3%
17,Cc1ccc(N2CCN(S(=O)(=O)c3nnc(NC(=O)c4ccc(C(C)C)cc4)s3)CC2)cc1,inactive: 3.57%
18,Cc1ccccc1CSc1nc2cccnc2n1Cc1ccc(C(=O)NC2CC2)cc1,inactive: -28.3%
19,CCOc1ccc(Nc2nc(C)c(NC(=O)c3cccc(OC)c3)c(Nc3ccc(OCC)cc3)n2)cc1,inactive: -25.5%
20,COc1ccc(CNC(=O)C2CCC(CNS(=O)(=O)c3cccs3)CC2)cc1 (stereo not given),inactive: 1.41%
21,CCOC(=O)c1ccccc1NC(=O)CSc1cn(CC(=O)N2CCOCC2)c2ccccc12,inactive: 10.7%
22,COc1ccc(S(=O)(=O)N(CC(=O)Nc2cccc(C)c2)c2ccc(C)cc2)cc1OC,inactive: 18.9%
23,Cc1cc(C)c(NC(=O)CSc2nc(-c3ccc(F)cc3)nc3c2Cc2c(CO)cnc(C)c2O3)c(C)c1,inactive: -0.0563%
